Source: the supplement of paper PMC11417369
± gives the standard deviation of the averaged measurements. The list shows a part of the results.

tested on: PfAP2-EXP AP2 domain (GST-tagged); assay: gcPBM binding intensity (ln(normalized median fluorescence intensity)); higher = stronger DNA binding
How it was run: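 Alexa488 anti-GST antibody, scanned at 488 nm, detected GST-tagged P. falciparum DNA-binding domains that had been expressed in E. coli and incubated for 1 h on an Agilent 4 × 180k array. The array carried primer-extended double-stranded 36-bp intergenic genomic probes and negative controls. Binding intensity is the highest Masliner-normalised natural-log median intensity across replicate spots of either orientation of each probe.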

Sequence | gcPBM binding intensity (ln)
AAACAAAAAAAATAAGCACACATATATATATATATA [CACACA_site8173] | 10.1 ± 0.26
GCTTATAAGATATGCACACACAACACTTACAAAAAA [CACACA_site817] | 8.53 ± 0.37
AAAATTATATGTAATTGTACGGAATTATATACGCAA [XGTACX_site2048] | 8.86 ± 0.3
TTTTTTAAAAATATTATCATCGTAACAAGAAATCGA [CACACA_negctrl_site1111] | 8.45 ± 0.4
TCCTGTGGTTATATAACACACATTATTGCTTATAAG [CACACA_site6823] | 8.66 ± 0.43
ATATTGCTTATTTGATGTACGAATACACTAGTATTA [XGTACX_site4536] | 8.59 ± 0.26
ATACTAAATGAACACACACACATATAGATTTATAAC [CACACA_site6200] | 8.71 ± 0.59
TATCTGTATATGTGTACACATATTCTTAACTCACGC [CACACA_site4255] | 8.87 ± 0.37
GAACAACAACAAAAAAAAAAAAAAAAAAAAAAAAAA [CACACA_negctrl_site199] | 7.87 ± 0.49
TAAATAAATATATGTACACACACAAATATATACATA [CACACA_site8577] | 8.26 ± 0.39
TATATGATATAATATACACACATACATATATATATA [CACACA_site8066] | 9.76 ± 0.33
ATTTTATGAAATGTTGCACACAAAAAACAACATGTT [CACACA_site8408] | 8.61 ± 0.35
ATGGGAAAAACATTCCGTACATACATACACATATAT [XGTACX_site8263] | 8.45 ± 0.38
ATATTTAATACAAATACACACACAAATATATACATA [CACACA_site9248] | 8.65 ± 0.54
CTGAATTTTTATAACTGTACATATTTGATATAAAAA [XGTACX_site183] | 8.42 ± 0.2
GAAATCTAATTTATTACACACATTTGAAAAAAATTC [CACACA_site6640] | 8.1 ± 0.42

Sequence | gcPBM binding intensity (ln)
TTACTAAGAAGGATTTATTTTATAAAAATATTTATT [XGTACX_negctrl_site549] | 7.95 ± 0.41
AATTTTTTGAATAATTGTACATATTTGGTTAAATAT [XGTACX_site3612] | 8.25 ± 0.37
ACCCATTTTTGTTGTTCTATATATTCGTGAATCATT [CACACA_negctrl_site614] | 8.88 ± 0.49
TTATATTTTTTTGAGTGTACTTTTTGTGTAAAATTC [XGTACX_site2155] | 8.51 ± 0.37
ATATTTTATACTTGCACACAAAATATATTAGAATGT [CACACA_site1985] | 8.51 ± 0.23
TACAGATAAATATACATACATATATATATATATATA [XGTACX_negctrl_site182] | 9.93 ± 0.56
ATATTATTTTATTTTTGTACAGATATCTTTAAAAAA [XGTACX_site3734] | 8.61 ± 0.4
CACGCGCACGAACACACACACACACGCATATAAATA [CACACA_site7103] | 8.71 ± 0.39
TTTTTTTTTTTTTTTGCACACTTAAATTTGGTGGGG [CACACA_site2344] | 8.96 ± 0.26
AATACATACATACATACATGCATATATATATATATA [TGCATGCA_site462] | 10.2 ± 0.14
AACATCATCTCTCCACAACAACAAAAAAAAAAATAC [CACACA_negctrl_site311] | 8.61 ± 0.49
TTATTAAAAATGGTATGTACGCACATAATATATATA [XGTACX_site3230] | 8.87 ± 0.24
TGTTTATGTTTACATGTGCGCATTACAGAAAAAAAA [GTGCAC_site9669] | 8.9 ± 0.28
TATTTTTATTGGTGAATACACACGTATATATATATT [CACACA_site2401] | 8.69 ± 0.39
ACATGTATACTTTTTACGAAAAAAAAAAAAAAAAAA [CACACA_negctrl_site1638] | 8.09 ± 0.45
TTTTTATTTAAAAGTAGTACAAGGGTTATTATTAAC [XGTACX_site1555] | 8.54 ± 0.37
